Where a chain is given by its changes, count along the chain named.
B1: hT4VL.FRv40558 (antibody, human IgG1, kappa)
heavy: EVQLVESGGGLVQPGGSLRLSCAASGYTFTSYVMHWVRQAPGKGLEWVSAINPYNDGNYYADSVKGRFTISRDNSRKTLYLQMNSLRAEDTAVYYCARGAYKRGYAMDYWGQGTTVTVSSASTKGPSVFPLAPSSKSTSGGTAALGCLVKDYFPEPVTVSWNSGALTSGVHTFPAVLQSSGLYSLSSVVTVPSSSLGTQTYICNVNHKPSNTKVDKKV[human IgG1 Fc not given here]GSGGGSVTGYRLFEEIL
light: DIQMTQSPSSLSASVGDRVTITCKSSQSLFNDKTRKNYLAWYQQKPGKAPKLLIYWASTRESGVPARFSGSGSGTDFTLTISSLEPEDFAVYYCQQEYYEPYTFGQGTKVEIKRTVAAPSVFIFPPSDEQLKSGTASVVCLLNNFYPREAKVQWKVDNALQSGNSQESVTEQDSKDSTYSLSSTLTLSKADYEKHKVYACEVTHQGLSSPVTKSFNRGEC
B2: hT4VL.FRv40549 (antibody, human IgG1, kappa)
heavy: B1 heavy
light: B1 light with N31E, D32S, K33S, Q95Y, E97Y, E100Q
B3: hT4VL.FRv40550 (antibody, human IgG1, kappa)
heavy: B1 heavy
light: B1 light with N31E, D32S, K33S, E100Q
B4: hT4VL.FRv40542 (antibody, human IgG1, kappa)
heavy: B1 heavy
light: B1 light with N31E, D32S, Q95Y, E97Y
B5: hT4VL.FRv40552 (antibody, human IgG1, kappa)
heavy: B1 heavy
light: B1 light with N31E, D32S, K33V, Q95Y, E97Y
B6: hT4VL.FRv40548 (antibody, human IgG1, kappa)
heavy: B1 heavy
light: B1 light with N31E, D32S, K33S, Q95H, E97Y, E100Q
B7: hT4VL.FRv40555 (antibody, human IgG1, kappa)
heavy: B1 heavy
light: B1 light with N31E, D32S, K33R, R35S, Q95Y, E97Y
B8: hT4VL.FRv40557 (antibody, human IgG1, kappa)
heavy: B1 heavy
light: B1 light with N31E, D32S, K33R, K36L, Q95Y, E97Y
B9: hT4VL.FRv40545 (antibody, human IgG1, kappa)
heavy: B1 heavy
light: B1 light with N31E, D32S, K33S, Q95H, E97Y
B10: hT4VL.FRv40546 (antibody, human IgG1, kappa)
heavy: B1 heavy
light: B1 light with N31E, D32S, K33S, Q95Y, E97Y
B11: hT4VL.FRv40556 (antibody, human IgG1, kappa)
heavy: B1 heavy
light: B1 light with N31E, D32S, K33R, K36L, Q95H, E97Y
B12: hT4VL.FRv40551 (antibody, human IgG1, kappa)
heavy: B1 heavy
light: B1 light with N31E, D32S, K33S, E97F, E100Q
B13: hT4VL.FRv40553 (antibody, human IgG1, kappa)
heavy: B1 heavy
light: B1 light with N31E, D32S, K33V, E97F
B14: hT4VL.FRv40543 (antibody, human IgG1, kappa)
heavy: B1 heavy
light: B1 light with N31E, D32S
B15: hT4VL.FRv40544 (antibody, human IgG1, kappa)
heavy: B1 heavy
light: B1 light with N31E, D32S, E97F
B16: hT4VL.FRv40554 (antibody, human IgG1, kappa)
heavy: B1 heavy
light: B1 light with N31E, D32S, K33R, R35S, Q95H, E97Y
B17: hT4VL.FRv40547 (antibody, human IgG1, kappa)
heavy: B1 heavy
light: B1 light with N31E, D32S, K33S, E97F
B18: hT4VL.FRv40541 (antibody, human IgG1, kappa)
heavy: B1 heavy
light: B1 light with N31E, D32S, Q95H, E97Y
B19: hT4VL.FRv40495 (antibody, human IgG1, kappa)
heavy: B1 heavy
light: B1 light with I2L, Q3V, D32S, K33R, E97Y, E100P, P101D
B20: hT4VL.FRv40498 (antibody, human IgG1, kappa)
heavy: B1 heavy
light: B1 light with I2L, Q3V, D32S, K33R, E97Y, P101N
B21: hT4VL.FRv40469 (antibody, human IgG1, kappa)
heavy: B1 heavy
light: B1 light with I2L, Q3V, E97Y, E100H, P101M
B22: hT4VL.FRv40497 (antibody, human IgG1, kappa)
heavy: B1 heavy
light: B1 light with I2L, Q3V, D32S, K33R, E97Y, P101M, Y102P
B23: hT4VL.FRv40473 (antibody, human IgG1, kappa)
heavy: B1 heavy
light: B1 light with I2L, Q3V, K33R, R35E, E97Y, E100H, P101M
B24: hT4VL.FRv40476 (antibody, human IgG1, kappa)
heavy: B1 heavy
light: B1 light with I2L, Q3V, N31D, D32S, E97Y, E100H, P101M
B25: hT4VL.FRv40500 (antibody, human IgG1, kappa)
heavy: B1 heavy
light: B1 light with I2L, Q3V, D32S, K33R, E97Y
B26: hT4VL.FRv40479 (antibody, human IgG1, kappa)
heavy: B1 heavy
light: B1 light with I2L, Q3V, D32S, R35E, E97Y, E100H, P101M
B27: hT4VL.FRv40471 (antibody, human IgG1, kappa)
heavy: B1 heavy
light: B1 light with I2L, Q3V, N31E, K33R, E97Y, E100H, P101M
B28: hT4VL.FRv40475 (antibody, human IgG1, kappa)
heavy: B1 heavy
light: B1 light with I2L, Q3V, K24N, K33R, E97Y, E100H, P101M
B29: hT4VL.FRv40496 (antibody, human IgG1, kappa)
heavy: B1 heavy
light: B1 light with I2L, Q3V, D32S, K33R, E97Y, E100P
B30: hT4VL.FRv40470 (antibody, human IgG1, kappa)
heavy: B1 heavy
light: B1 light with I2L, Q3V, K33H, E97Y, E100H, P101M
B31: hT4VL.FRv40477 (antibody, human IgG1, kappa)
heavy: B1 heavy
light: B1 light with I2L, Q3V, N31E, D32S, E97Y, E100H, P101M
B32: hT4VL.FRv40472 (antibody, human IgG1, kappa)
heavy: B1 heavy
light: B1 light with I2L, Q3V, K33R, T34D, E97Y, E100H, P101M
B33: hT4VL.FRv40499 (antibody, human IgG1, kappa)
heavy: B1 heavy
light: B1 light with I2L, Q3V, D32S, K33R, E97Y, P101D
B34: hT4VL.FRv40478 (antibody, human IgG1, kappa)
heavy: B1 heavy
light: B1 light with I2L, Q3V, D32S, T34D, E97Y, E100H, P101M
B35: hT4VL.FRv40474 (antibody, human IgG1, kappa)
heavy: B1 heavy
light: B1 light with I2L, Q3V, K33R, R35S, E97Y, E100H, P101M

target: ECM (extracellular matrix); assay: ECL plate assay on coated ECM (Matrigel), antibody 3 ug/mL, pH 7.4

| ECM binding vs Control Ab (pH 7.4) (ratio vs Control Ab) | Binder |
| --- | --- |
| 2.31 | B1 |
| 2.58 | B2 |
| 2.12 | B3 |
| 2.64 | B4 |
| 2.02 | B5 |
| 1.92 | B6 |
| 1.98 | B7 |
| 2.65 | B8 |
| 1.28 | B9 |
| 1.54 | B10 |
| 2.49 | B11 |
| 2.19 | B12 |
| 1.84 | B13 |
| 2.49 | B14 |
| 2.86 | B15 |
| 1.15 | B16 |
| 1.51 | B17 |

target: ECM (extracellular matrix); assay: ECL plate assay on coated ECM (Matrigel), antibody 3 ug/mL, pH 5.8

| ECM binding vs Control Ab (pH 5.8) (ratio vs Control Ab) | Binder |
| --- | --- |
| 46.2 | B1 |
| 27.8 | B2 |
| 27.7 | B3 |
| 38.5 | B4 |
| 24 | B5 |
| 12.2 | B6 |
| 20.5 | B18 |
| 19.5 | B7 |
| 9.6 | B8 |
| 8.6 | B9 |
| 22.3 | B10 |
| 8.3 | B11 |
| 24.1 | B12 |
| 25.8 | B13 |
| 32 | B14 |
| 33 | B15 |
| 7.2 | B16 |
| 21.1 | B17 |

target: ECM (extracellular matrix); assay: ECL plate assay on coated ECM (Matrigel)

| ECM binding vs Control Ab (pH 5.8) (fold vs Control Ab) | ECM binding vs Control Ab (pH 7.4) (fold vs Control Ab) | Binder |
| --- | --- | --- |
| 47.5 | 12.9 | B19 |
| 44 | 7.71 | B20 |
| 33.9 | 3.34 | B21 |
| 37.5 | 8.21 | B22 |
| 15.1 | 1.46 | B23 |
| 17.9 | 2.95 | B24 |
| 60 | 7.03 | B25 |
| 18.4 | 1.9 | B26 |
| 18.2 | 2.5 | B27 |
| 49 | 3.84 | B28 |
| 62.8 | 10.8 | B29 |
| 49.6 | 2.85 | B30 |
| 30.4 | 3.73 | B31 |
| 10 | 1.97 | B32 |
| 41.9 | 6.9 | B33 |
| 18.6 | 3.41 | B34 |
| 25.9 | 2.69 | B35 |

From patent US20240124614A1
